Assay results as given in patent CN114369161A (HEFEN TIANKPORT IMMUNOLOGICAL DRUG CO LTD, dated 2022).

Target: T1, MICA (CHO-K1-MICA细胞表达) (Homo sapiens (Human), UniProt Q29983 24-383)
T1 construct: also called MICA蛋白
T1 sequence: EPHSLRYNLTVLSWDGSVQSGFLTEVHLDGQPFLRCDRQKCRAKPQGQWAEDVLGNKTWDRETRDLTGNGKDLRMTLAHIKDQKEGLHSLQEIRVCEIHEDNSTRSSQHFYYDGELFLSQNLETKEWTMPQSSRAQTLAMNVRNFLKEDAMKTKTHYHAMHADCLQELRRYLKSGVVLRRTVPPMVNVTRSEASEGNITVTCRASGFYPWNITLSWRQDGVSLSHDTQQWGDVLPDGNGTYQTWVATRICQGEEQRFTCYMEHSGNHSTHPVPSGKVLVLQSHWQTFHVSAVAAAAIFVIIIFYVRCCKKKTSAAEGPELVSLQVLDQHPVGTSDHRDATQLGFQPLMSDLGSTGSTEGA
Assay: flow cytometry (legend of Fig. 9)

- binding result: binds
B1: NKG2D胞外区Fc融合蛋白(NKG2D-Fc) (Fc fusion)
chain: IWSAVFLNSLFNQEVQIPLTESYCGPCPKNWICYKNNCYQFFDESKNWYESQASCMSQNASLLKVYSKEDQDLLKLVKSYHWMGLVHIPTNGSWQWEDGSILSPNLLTIIEMQKGDCALYASSFKGYIENCSTPNTYICMQRTV[human IgG1 Fc not spelt out]
notes: expressed by the inventors
